We go through 54 sequences from publication PMC7819943, “Rice protein-binding microarrays: a tool to detect cis-acting elements near promoter regions in rice”.

The other results are listed elsewhere or left out.

The test has as its target T1, OsWOX13 (Oryza sativa, UniProt Q5QMM3 1-267).
T1 sequence: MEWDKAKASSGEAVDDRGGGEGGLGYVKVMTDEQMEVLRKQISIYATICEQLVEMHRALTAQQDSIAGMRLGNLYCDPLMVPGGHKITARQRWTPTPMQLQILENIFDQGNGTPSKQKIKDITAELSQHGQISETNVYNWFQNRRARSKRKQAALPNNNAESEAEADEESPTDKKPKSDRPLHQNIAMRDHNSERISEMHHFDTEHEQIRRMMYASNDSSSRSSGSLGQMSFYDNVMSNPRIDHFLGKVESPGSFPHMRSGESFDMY
Briefly: protein-binding microarray (RPBM); PBS, 2% BSA, 51.3 ng/ul salmon testes DNA, 50 uM zinc acetate, 200 nM TF, 25 C, 1 h; high values mean tight binding. Conditions: protein: recombinant; tags: N-terminal polyhistidine and DsRed monomer fusion (pET32a); label: CyDye5-dUTP incorporated in the synthesized complementary strand; 3' TTTTT single-stranded linker to array surface; dsDNA, one strand shown. The method in brief:
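Binding signal is reported as fluorescence intensity per feature (arbitrary units) from an Axon 4000B scanner. Incubation used 200 nM of each Ni–NTA-purified, N-terminally polyhistidine- and DsRed-fused transcription factor from E. coli BL21-CodonPlus on a double-stranded custom Agilent array for 1 h at 25 °C, with 50 µM zinc acetate in the buffer, followed by washing.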
With “TGGTCCTTGATAATTTGTTGGTCTTGTAGCGTGGGTGTTTCGGAGTCACCTAGTGCAG”, the binding signal was 3150 fluorescence intensity (a.u.).

On to “GGTGATATCGCCATCCAAGTGATTGAGTAGTTGATATAGACGGAGTCACCTAGTGCAG”, for which the binding signal is 4660 fluorescence intensity (a.u.).

Turning to “GGGTAGACTAGTATTATGTTATTATCCCTGACAGGTGGGCCGGAGTCACCTAGTGCAG”, the binding signal was 3520 fluorescence intensity (a.u.).

As to “CTGTCCATTAAGATCTAGTAACAGAGCAATCAGAATTCAGCGGAGTCACCTAGTGCAG”, the binding signal was 4650 fluorescence intensity (a.u.).

Consider “GCTTGGATGCTTGATTACAATTTAGTACTAGTGTACTACACGGAGTCACCTAGTGCAG”, for which the binding signal is 4270 fluorescence intensity (a.u.).

In the case of “CTAATTAGTAACATGAAGAGAGGGCAATCAATGTACAGTGCGGAGTCACCTAGTGCAG”, the binding signal is 17600 fluorescence intensity (a.u.).

With “TATTCGACTATGGTTTGATTGGCTAGCACCGGGATCTTACCGGAGTCACCTAGTGCAG”, the binding signal is 12800 fluorescence intensity (a.u.).

With “CGGATTAATTAGGCTCAAAAGATTCGTCTCGCGGTTTCTACGGAGTCACCTAGTGCAG”, the binding signal was 20500 fluorescence intensity (a.u.).

As for “CTTGATTGAGAGATACAGCTAGTTGCAAGATTATAGCAAACGGAGTCACCTAGTGCAG”, the binding signal was 33700 fluorescence intensity (a.u.).

As to “ATTATTGACAAAAGCATCTCGATATCTTATGGATTAATATCGGAGTCACCTAGTGCAG”, the binding signal is 4720 fluorescence intensity (a.u.).

As for “TTTAGTTAAATTTAAAATAGATTAAGTTTGACTAAAGTCTCGGAGTCACCTAGTGCAG”, the binding signal is 27100 fluorescence intensity (a.u.).

Regarding “GAATGCAAGAAACATAAATAGATTGATATATAGACTATACCGGAGTCACCTAGTGCAG”, the binding signal was 9410 fluorescence intensity (a.u.).

With “CATCAATTAAGTTTCAGATCAACTCGTCTGTCAAGAGAGCCGGAGTCACCTAGTGCAG”, the binding signal was 25500 fluorescence intensity (a.u.).

“ATCTTCTCAGAATTTTGATTGTCTTTGAAATGGAGAGCACCGGAGTCACCTAGTGCAG”: the binding signal is 5360 fluorescence intensity (a.u.).

As for “CCTCACCCCTTCTAATTATTTGATATTAGGTCCTTCACTACGGAGTCACCTAGTGCAG”, the binding signal was 3480 fluorescence intensity (a.u.).

For “CTTACATAATTATACAACACAATATCAAAACAATTTTCTACGGAGTCACCTAGTGCAG”, the binding signal was 7400 fluorescence intensity (a.u.).

With “CATAATTAGTGCTAGCTAAGTCAATCCTGCAAGCCTATATCGGAGTCACCTAGTGCAG”, the binding signal was 9180 fluorescence intensity (a.u.).

As for “GGCGTATTTCCCAATCATTGTGCGGTCCAAAACCATCGCCCGGAGTCACCTAGTGCAG”, the binding signal is 10000 fluorescence intensity (a.u.).

In the case of “CAGTTTATTGGTTTATATGATTTATAAGCTGGTGATTTAACGGAGTCACCTAGTGCAG”, the binding signal was 9160 fluorescence intensity (a.u.).

“AAAGTAGTTAATTACTGCTAATTACATGGATTAGTTGGGTCGGAGTCACCTAGTGCAG”: the binding signal was 33500 fluorescence intensity (a.u.).

Turning to “CTAAACTTATAGGAGTATTAATTAGCATCAGCAAGTTACTCGGAGTCACCTAGTGCAG”, the binding signal is 5330 fluorescence intensity (a.u.).

As to “TCTCAATCAATCTCACCATCCGACGGTCGCAACGAGCCAACGGAGTCACCTAGTGCAG”, the binding signal was 18800 fluorescence intensity (a.u.).

Regarding “GCAGGATTGTTAACTAAACTCGGTCAAACCCGATAAACTGCGGAGTCACCTAGTGCAG”, the binding signal was 10900 fluorescence intensity (a.u.).

As for “CTATAATTATATTTTAAATTACATTTAACGTTTTCTACAGCGGAGTCACCTAGTGCAG”, the binding signal is 44400 fluorescence intensity (a.u.).

Turning to “ACACAGGATTCTGATAGTAATTGAAGTATAAAACAGAGGACGGAGTCACCTAGTGCAG”, the binding signal is 5060 fluorescence intensity (a.u.).

In the case of “AATTTACAAATGTAATTTTAGTTATATAGGACTGTAAGTTCGGAGTCACCTAGTGCAG”, the binding signal was 3920 fluorescence intensity (a.u.).

In the case of “ATCTTCGCAAAAGCTTTGCCACTGTGCCTCCATGGAACTGCGGAGTCACCTAGTGCAG”, the binding signal is 7040 fluorescence intensity (a.u.).

Take “GAAACTAATGTATAACAGGAGCAACATGTTCGTAGTACAGCGGAGTCACCTAGTGCAG”: the binding signal was 3410 fluorescence intensity (a.u.).

With “ATCCAATAAATTATTACAAGCCTGAATGACACAGCAAGAACGGAGTCACCTAGTGCAG”, the binding signal is 12600 fluorescence intensity (a.u.).

As for “CTTAAAACACCAGTAATTGACTAGTAAACCCCTCATTCACCGGAGTCACCTAGTGCAG”, the binding signal was 30900 fluorescence intensity (a.u.).

“GCAGTAACAAGCTTTTAATTTTGGATCAAGAGTTTGGATTCGGAGTCACCTAGTGCAG”: the binding signal is 4520 fluorescence intensity (a.u.).

Take “CATAATTACTGATTAATTTACTTCGAGGCAGAAGATACCACGGAGTCACCTAGTGCAG”: the binding signal was 37300 fluorescence intensity (a.u.).

With “CCATCAATCTTTAATGTTTGTCTGTTAAGCAGGTTTGTTCCGGAGTCACCTAGTGCAG”, the binding signal is 7310 fluorescence intensity (a.u.).

On to “TTTGACTGAACTTCATCTCCAGGAGGGGTGGAGCTGGAGCCGGAGTCACCTAGTGCAG”, for which the binding signal is 20600 fluorescence intensity (a.u.).

In the case of “AGTCGAAATTGAGGGACCTTAATAAGTTTTAAACTTGATCCGGAGTCACCTAGTGCAG”, the binding signal is 4700 fluorescence intensity (a.u.).

In the case of “GACATAATGACATGAAATGTAACTGAAAGCATTTAGCACTCGGAGTCACCTAGTGCAG”, the binding signal is 9660 fluorescence intensity (a.u.).

In the case of “TTATAATAATACCGAATTGATGATCTGACTGCGAATGCATCGGAGTCACCTAGTGCAG”, the binding signal was 7290 fluorescence intensity (a.u.).

As for “AACAAATTACGGATTCCGTCAGGAAACTGCGAGACGAATTCGGAGTCACCTAGTGCAG”, the binding signal was 4580 fluorescence intensity (a.u.).

On to “TTTCAAATTGAATGTTTGGATTTGAAACATATCAAAAGTTCGGAGTCACCTAGTGCAG”, for which the binding signal was 17100 fluorescence intensity (a.u.).

In the case of “ATTAATAGAATACTCATATCAACAGGTTGCAACTTCTTTTCGGAGTCACCTAGTGCAG”, the binding signal is 6320 fluorescence intensity (a.u.).

On to “AACACTAATTTAGTATCGAGTTTAACACAGTACTCCCTCCCGGAGTCACCTAGTGCAG”, for which the binding signal is 19100 fluorescence intensity (a.u.).

For the sequence “GATCAATGATGCGCCATTGACAAGATCCCTGCTAAGGGAGCGGAGTCACCTAGTGCAG”, the binding signal was 3720 fluorescence intensity (a.u.).

With “TGTTAGATTTGTTCATCCATTATATTTTCTTGAAAGGAAACGGAGTCACCTAGTGCAG”, the binding signal was 6360 fluorescence intensity (a.u.).

Take “ACAGATTGGACGGCCGCCCGAGCTATACTATTACCGTTTTCGGAGTCACCTAGTGCAG”: the binding signal is 20800 fluorescence intensity (a.u.).

In the case of “GGCTTAATTGTTGATTAAACATCAGGCTCTTCTTGCATATCGGAGTCACCTAGTGCAG”, the binding signal was 54900 fluorescence intensity (a.u.).

Take “GGATAATGATTTGACATTGATTGCGGTCTCGTTATTTTCTCGGAGTCACCTAGTGCAG”: the binding signal was 59500 fluorescence intensity (a.u.).

As for “CCTAGACAGATTTTGTACCACATGCCTTGTATAGGCCTCCCGGAGTCACCTAGTGCAG”, the binding signal is 18700 fluorescence intensity (a.u.).

On to “AGTTGTAAATCAAATTAAGTTTACTTTGTGTCCCTTTTCTCGGAGTCACCTAGTGCAG”, for which the binding signal is 4170 fluorescence intensity (a.u.).

On to “ACGGCCCTGATTACGCCCATCCCGGAACATTTTAGCGGAGCGGAGTCACCTAGTGCAG”, for which the binding signal is 5600 fluorescence intensity (a.u.).

“ACATAGACTAATAACAAAACAAATTATAGAATCTGTAAGTCGGAGTCACCTAGTGCAG”: the binding signal is 4180 fluorescence intensity (a.u.).

In the case of “GTAAATTATATATTTATATAAATTTACATTGTAGTTACACCGGAGTCACCTAGTGCAG”, the binding signal was 35900 fluorescence intensity (a.u.).

For the sequence “TTATTAATTTAAATATGTTAGGATGTTGGATATAAGCGGTCGGAGTCACCTAGTGCAG”, the binding signal is 20000 fluorescence intensity (a.u.).

As to “AACAATTGATTAAACAGGATTCAATAACAAATAAACAGGACGGAGTCACCTAGTGCAG”, the binding signal was 43000 fluorescence intensity (a.u.).

In the case of “GACAATTATGTAAAATCATTAGCACACCAAAATTTAAAGGCGGAGTCACCTAGTGCAG”, the binding signal was 7500 fluorescence intensity (a.u.).
